Biological target: T1, CD44 (endogenous, of NCI-H929, U266, U937 and HL-60 cells) (human, UniProt P16070 21-742)
T1 construct: Endogenous protein: from membrane extracts/lysates in the pull-downs, on whole cells in the confocal work; Isoform not determined (pan-CD44 antibody; cells are said to express CD44s, CD44v3 and CD44v9); also called glycoprotein adhesion receptor CD44
Assay: pull-down from H929 membrane extract with biotin on NeutrAvidin beads, western blot with a pan-CD44 antibody

T1 sequence (P16070 21-742 limits assumed): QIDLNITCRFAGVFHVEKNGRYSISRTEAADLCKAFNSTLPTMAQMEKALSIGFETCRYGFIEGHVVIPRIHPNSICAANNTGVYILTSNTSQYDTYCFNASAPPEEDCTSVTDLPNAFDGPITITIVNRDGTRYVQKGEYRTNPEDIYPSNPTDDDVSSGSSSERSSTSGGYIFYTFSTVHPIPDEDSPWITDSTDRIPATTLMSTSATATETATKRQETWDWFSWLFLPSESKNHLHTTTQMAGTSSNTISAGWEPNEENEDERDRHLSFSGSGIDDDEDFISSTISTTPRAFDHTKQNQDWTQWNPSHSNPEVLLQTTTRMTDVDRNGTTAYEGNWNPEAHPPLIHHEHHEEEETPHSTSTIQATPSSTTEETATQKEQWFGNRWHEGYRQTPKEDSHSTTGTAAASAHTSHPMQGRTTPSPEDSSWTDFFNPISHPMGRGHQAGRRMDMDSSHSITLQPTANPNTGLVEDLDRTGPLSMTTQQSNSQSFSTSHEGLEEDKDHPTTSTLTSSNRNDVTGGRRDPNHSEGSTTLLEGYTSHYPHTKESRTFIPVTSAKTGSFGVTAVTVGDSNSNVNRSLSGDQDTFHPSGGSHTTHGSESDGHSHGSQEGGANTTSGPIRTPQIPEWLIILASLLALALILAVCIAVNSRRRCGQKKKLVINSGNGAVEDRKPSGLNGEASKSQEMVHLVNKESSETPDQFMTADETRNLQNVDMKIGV

B1: biotin-coated NeutrAvidin (control) (other, UniProt P02701 25-152, looked up)
chain: ARKCSLTGKWTNDLGSNMTIGAVNSRGEFTGTYITAVTATSNEIKESPLHGTQNTINKRTQPTFGFTVNWKFSESTTVFTGQCFIDRNGKEVLKTMWLLRSSVNDIGDDWKATRVGINIFTRLRTQKE
modifications: biotin bound (non-covalent)
notes: also called Biotin-coated NetraAvidin
Does B1 bind?
Result: no binding (tested: 30 ug membrane extract (legend))

Source: patent US20150071918A1 (H LEE MOFFITT CANCER CENTER AND RESEARCH INSTITUTE, published 2015)
